Source: PubChem BioAssay AID1240 (Sanford-Burnham Center for Chemical Genomics, 2008)
Hit rate of the full screen: of about 50,000 compounds, about 800 (1.6%) showed an effect of 50% or more. This is one part of the list.

These compounds were tested against Bcl-2-like protein 10 (Homo sapiens) (UniProt Q9HD36) (assay: TR3 peptide-Bcl-B binding displacers, biochemical primary FP assay, phenotype converters (AID 1240;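 also: 0% = Bcl-B with tracer peptide and DMSO and 100% = tracer peptide lacking Bcl-B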)). Settings: GST-Bcl-B / FITC-TR3 peptide fluorescence polarization; stronger effect = higher value; compound at 3.75 mg/L.
Sequence of UniProt Q9HD36 (Q9HD36 whole entry, looked up): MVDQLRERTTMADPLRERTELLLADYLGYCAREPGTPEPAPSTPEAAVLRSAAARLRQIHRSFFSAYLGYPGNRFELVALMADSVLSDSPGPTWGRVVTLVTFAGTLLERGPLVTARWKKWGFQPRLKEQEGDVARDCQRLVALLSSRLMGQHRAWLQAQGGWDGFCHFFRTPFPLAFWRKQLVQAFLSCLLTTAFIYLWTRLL
Compound `c1ccc(C2CCC(N3CCN(C4CCCC4)CC3)CC2)cc1` (centres undefined) has a displacement of -12.8%. `COCCOC(=O)C1=C(C)NC(=O)NC1c1cccc(OCc2ccccc2)c1` (centres undefined) gave a displacement of 3.3%. `COc1cc(C2Nc3ccc4ccccc4c3C3=C2C(=O)CC(C)(C)C3)ccc1OCC(=O)O` (centres undefined) showed a displacement of 6.1%. Work on `CC(C)c1ccc(NC(=O)C(=O)NCCCN2CCOCC2)cc1` yielded a displacement of 40.6%. Compound `Oc1c(/C=C2/C=Nc3ccccc32)sc(=S)n1Cc1ccccc1` has a displacement of -12.8%. Work on `O=C1NC(=S)N(c2ccccc2F)C(=O)/C1=C/c1ccc(OCc2cccc(C(=O)O)c2)cc1` yielded a displacement of 13.4%. For `O=[N+]([O-])c1ccc(/C=N/c2nc3c(s2)CCCC3)cc1`, the displacement was 6.6%. For `CCOc1ccccc1N(C(C)=O)S(=O)(=O)c1ccc(Cl)cc1`, the displacement was 12.2%. `CCOC(=O)C1(C(=O)OCC)C(C(=O)OCC)(C(=O)OCC)C1(C(=O)OCC)C(=O)OCC` was tested, and the displacement was 9.2%. Work on `Oc1c(C=C2N=c3ccccc3=N2)sc(=S)n1-c1cccc(C(F)(F)F)c1` yielded a displacement of 0%. `NC(=O)N=Nc1c(O)n(Cc2ccccc2)c2ccc(Br)cc12` gave a displacement of 1.1%. In the case of `O=C(Nc1c(Cl)cccc1Cl)c1ccccc1`, the displacement is reported as 8.4%. Compound `O=C(/C=C(\O)c1ccc([N+](=O)[O-])cc1)C(F)(F)F` has a displacement of 0.2%. `Cc1cccc(NC(=O)CC(c2ccccc2)c2ccccc2)n1` showed a displacement of 17.2%. `O=C1c2cccc(Cl)c2C(=O)c2cccc(Cl)c21` showed a displacement of -1.2%. Compound `COc1ccc(CC(=O)Nc2sc3c(c2C#N)CCCC3)cc1OC` has a displacement of -2%. `CC(C)(Oc1ccc(-c2ccco2)cc1)C(=O)O` showed a displacement of 16.7%. For `CCOc1ccc(NC(=O)CN(c2ccc(Br)cc2)S(C)(=O)=O)cc1`, the displacement was 11.8%. `COC(=O)C1=C(C)NC2=C(C(=O)CC(C)(C)C2)C1c1cccs1` (centres undefined) showed a displacement of -2.8%. With `CCOC(=O)CCNC(=O)CCNC(=O)C(c1ccccc1)c1ccccc1` the displacement was 1.7%. `CNC(=O)CN(c1cccc(OC)c1)S(=O)(=O)c1ccccc1` was tested, and the displacement was 0.8%. In the case of `COc1c(O)ccc(/C=N/NC(=O)c2cccnc2)c1[N+](=O)[O-]`, the displacement is reported as 1.2%. `COc1ccccc1C(=O)Nc1ccc2c(c1)Cc1ccccc1-2` was tested, and the displacement was 1.1%. Compound `NC1=NC(=O)C(CC(=O)Nc2ccccc2C(F)(F)F)S1` (centres undefined) has a displacement of 2.8%. Compound `Oc1ccccc1C1=NOC(O)(C(F)(F)F)C1` (centres undefined) has a displacement of 5.1%. Compound `CN1CCc2c(sc3nc(Nc4ccccc4)n(N)c(=O)c23)C1` has a displacement of 21.2%. `C=CCc1cc(/C=C2/C(=O)NC(=O)N(c3ccccc3)C2=O)cc(OC)c1O` was tested, and the displacement was 24.1%. For `COc1ccccc1C(=O)NN1C(=O)/C(=C/c2ccc(N(C)C)cc2)SC1=S`, the displacement was 10.8%. Compound `NNc1nc2sc3c(c2c(=O)n1Cc1ccccc1)CCC3` has a displacement of -7.1%. `Cc1ccc(NC(=O)C(C)N2C(=O)c3ccccc3C2=O)c([N+](=O)[O-])c1` (centres undefined) showed a displacement of 12.9%. `O=C(Nc1cc(Cl)cc(Cl)c1)c1cccc(Cl)c1Cl` showed a displacement of 11.2%. `O=C1S/C(=C\c2ccc(O)cc2)C(=O)N1Cc1ccccc1` showed a displacement of -1.7%. For `COC(=O)C1=NN(C(=O)c2ccccc2)C(O)(c2ccc([N+](=O)[O-])cc2)C1` (centres undefined), the displacement was 7.3%. Work on `Cc1ccc(C)c(N=C2NC(=O)/C(=C/c3ccc(N4CCOCC4)cc3)S2)c1` yielded a displacement of -38%. Compound `COc1ccc(CNC(=O)Cn2nc(C)c([N+](=O)[O-])c2C)cc1` has a displacement of -1.4%. `COc1ccc(NS(=O)(=O)c2cccs2)cc1OC` showed a displacement of 0.8%. Work on `Cc1ccc(NC(=O)CC2S/C(=N\N=C3/CCCc4ccccc43)NC2=O)cc1Cl` (centres undefined) yielded a displacement of -4.5%. Work on `COC(=O)c1cc(C(=O)Nc2cc(C(=O)OC)ccc2C(=O)OC)cc([N+](=O)[O-])c1` yielded a displacement of 3.7%. Work on `O=c1[nH]c(-c2ccncc2)nc2ccccc12` yielded a displacement of -1.5%. With `O=C(O)C1CCCCC1C(=O)Nc1nc(-c2ccc(Br)cc2)cs1` (centres undefined) the displacement was -8.6%. Work on `CC(C)NC(=O)CSc1nc2ccccc2[nH]1` yielded a displacement of 7.1%. In the case of `CC(=O)Nc1ccc(S(=O)(=O)Nc2c(C)cc(C)cc2C)cc1`, the displacement is reported as -14.9%. For `O=C(Cc1ccccc1)Nc1ccc2nn(-c3cccc4ccccc34)nc2c1`, the displacement was 19.4%. `C=CCc1cccc2cc(C(=O)Nc3ccc(Cl)c(Cl)c3)c(=O)oc12` showed a displacement of 1.4%. `CCOCCP(=O)(c1ccccc1)c1ccccc1` gave a displacement of 16.9%. Work on `O=C(c1ccccc1)N1CC[C@H](O)[C@@H]2CCCC[C@H]21` yielded a displacement of -9.8%. In the case of `COc1ccc(Nc2ncnc3ccc(Br)cc23)cc1`, the displacement is reported as 5.6%. `O=C1NC(=O)N(c2ccccc2)C(=O)C1C(c1ccccc1)c1ccccc1` (centres undefined) was tested, and the displacement was -6.1%. `CN(C)/C=C1\C(=O)N(c2ccc([N+](=O)[O-])cc2)N=C1c1ccccc1` was tested, and the displacement was -7.4%. With `CC(Sc1ccc(Cl)cc1)C(=O)O` (centres undefined) the displacement was -9.1%. In the case of `COC(=O)c1c(C)oc2cc(Br)c(OC(=O)c3cccc([N+](=O)[O-])c3)cc12`, the displacement is reported as 8.8%. In the case of `O=C(Nc1ccc(Cl)cc1)Nc1nnc(Cc2cccc(Br)c2)s1`, the displacement is reported as 16.6%. `CC(=O)Oc1ccc(N2C(=O)CC(Sc3ccccc3C(=O)O)C2=O)cc1` (centres undefined) showed a displacement of -5.1%. `Cc1ccc(N2C(=O)NC(=O)/C(=C\c3ccc(I)cc3)C2=O)cc1` was tested, and the displacement was 8.2%. For `COCc1ccc(C(=O)Nc2ccccc2C(=O)O)o1`, the displacement was -1.7%. Work on `O=C(/C=C/c1cccc([N+](=O)[O-])c1)Nc1cccc(NC(=O)c2ccccc2Cl)c1` yielded a displacement of -2.9%. `CCOC(=O)c1cnn(-c2ccccc2)c1NC(=O)c1ccccc1` gave a displacement of 2.4%. With `O=C(NCc1ccc2c(c1)OCO2)C(=O)Nc1cccc(Cl)c1Cl` the displacement was -2.3%. Compound `O=[N+]([O-])c1cccc(Nc2ncnc3ccccc23)c1` has a displacement of -3.2%. In the case of `CC(C)C(=O)N1N=C(c2ccncc2)CC1(O)C(F)(F)F` (centres undefined), the displacement is reported as -0.7%. Compound `COc1ccc(S(=O)(=O)Nc2cccc(C)c2)cc1OC` has a displacement of 7.1%. `Oc1ccc(N=Cc2ccc(O)c(O)c2)cc1` showed a displacement of 31%. `CCOc1ccc2c(c1)-c1c(ssc1=S)C(C)(C)N2C(=O)CC` was tested, and the displacement was -9.8%. `COc1ccc(NC(=O)C2=C(C)NC(=O)NC2c2ccc(Br)cc2)cc1` (centres undefined) was tested, and the displacement was 3.8%. Compound `Cc1c(C(N)=O)c(N)c(C(=O)c2ccccc2)n1-c1ccccc1` has a displacement of -8.5%. Work on `COc1ccc(/C=C(/NC(=O)c2ccco2)C(=O)Nc2ccc(C(C)=O)cc2)cc1` yielded a displacement of -2.4%. Work on `O=C(/C=C/c1cccc([N+](=O)[O-])c1)Nc1cccc(F)c1` yielded a displacement of -1.2%. Work on `O=C(O)CC1S/C(=N\N=C\c2ccc([N+](=O)[O-])cc2)NC1=O` (centres undefined) yielded a displacement of -5.9%. `O=S(=O)(NNc1ccccc1)c1ccc2ccccc2c1` was tested, and the displacement was 15.7%. For `COc1cccc(C(=O)Nc2ccc(S(=O)(=O)Nc3onc(C)c3C)cc2)c1`, the displacement was -5.1%. `NS(=O)(=O)c1ccc(N=C2NC(=O)CS2)cc1` showed a displacement of 11.9%. Work on `COc1ccc(OCC(=O)Nc2cc(OC)cc(OC)c2)cc1` yielded a displacement of -11.7%. Compound `CCOC(=O)c1ccc(N2NC(=O)/C(=C/c3ccc(OCc4ccccc4)c(OC)c3)C2=O)cc1` has a displacement of -1%. `CCN1C(=O)/C(=C\c2ccccc2)C(C(=O)OC)=C1C` showed a displacement of -23.3%. `O=c1cc(-c2ccc(Br)cc2)oc2ccccc12` gave a displacement of -12.5%. With `O=C(Nc1ccc(Cl)c(Cl)c1)Nc1nnc(-c2ccccc2Br)s1` the displacement was 19.1%. Compound `COc1ccc(N(CC(=O)Nc2cccc(Cl)c2)S(C)(=O)=O)c(OC)c1` has a displacement of 15.1%. `CCOc1cc(C=C2C(=O)NC(=S)NC2=O)ccc1OCCSc1cccc2ccccc12` was tested, and the displacement was -11.7%. Work on `COc1cccc(N(CC(=O)Nc2ccc(OC)cc2OC)S(=O)(=O)c2ccccc2)c1` yielded a displacement of -9%. `O=C(O)CCN1C(=O)/C(=C/c2cccc(OCc3ccccc3)c2)SC1=S` showed a displacement of 11.9%. In the case of `COc1ccc(C(=O)Nc2ccccc2C(N)=O)cc1[N+](=O)[O-]`, the displacement is reported as 11.1%. `COc1ccc(N2C(=O)/C(=C\c3cccc(OC)c3O)SC2=S)cc1` gave a displacement of 11.8%. In the case of `Cc1ccc(/C=N/N=C(c2ccccc2)c2ccccc2)o1`, the displacement is reported as 9.9%. `COc1ccc(NC(=O)c2ccc(N3C(=O)CCC3=O)cc2)cc1` was tested, and the displacement was 8.7%. `Nc1nc(Nc2nc(N3CCCC3)cc(C(F)(F)F)n2)cc(C(F)(F)F)n1` was tested, and the displacement was 12%. `O=C(O)CN1C(=O)/C(=C\c2cccc(Cl)c2Cl)SC1=S` showed a displacement of 3%. For `CCOc1ccccc1NC(=O)C1C(c2ccccc2)C1(Cl)Cl` (centres undefined), the displacement was 1.9%. Work on `COc1ccc(Br)cc1/C=N/NC(=O)C1CC(c2ccccc2)(c2ccccc2)C1` yielded a displacement of -0.1%. `CCOc1cccc2c1NC(C)(C)C(=S)C2=C1SC(C(=O)OC)=C(C(=O)OC)S1` was tested, and the displacement was 30.6%. `Cc1c(NC(=O)c2ccc(I)cc2[N+](=O)[O-])c(=O)n(-c2ccccc2)n1C` showed a displacement of 3.9%. With `Cc1ccc2nsnc2c1NC(=O)c1ccccc1F` the displacement was -2.1%. Compound `CCOC(=O)CN1C(=O)/C(=C2\SC(=S)N(c3ccccc3)C2=O)c2ccccc21` has a displacement of -12.6%. For `CCC(CC)C(=O)N1c2ccc(F)cc2CCC1C` (centres undefined), the displacement was 2.8%. With `CCc1cccc(C)c1NC(=O)C(C(C)C)N1C(=O)c2ccccc2C1=O` (centres undefined) the displacement was 0.6%. `O=C(COc1ccccc1[N+](=O)[O-])Nc1ccc(Cl)c(-c2nc3cc(Cl)ccc3o2)c1` showed a displacement of 47.6%. `CCOC(=O)C(=CNc1ccc(Nc2ccccc2)cc1)C(=O)OCC` gave a displacement of -2.5%. `COC(=O)Nc1sc2c(c1C(N)=O)CCC(C(C)(C)C)C2` (centres undefined) showed a displacement of 10.7%. With `COc1ccc(C(=O)Cn2c(NCCO)nc3ccccc32)cc1` the displacement was 9.2%. `CCN1C(=O)C(=Cc2ccc(-c3cccc(C(=O)O)c3)o2)C(=O)N(CC)C1=S` showed a displacement of 11.4%. `O=c1oc(-c2ccc(Br)cc2)nc2cc(Cl)ccc12` showed a displacement of -4.5%. In the case of `CC(=O)COc1ccc2c(C)cc(=O)oc2c1C`, the displacement is reported as -13.5%. In the case of `COCCc1nnc(NC(=O)Nc2ccccc2)s1`, the displacement is reported as 2.8%. With `COc1ccc2oc(=O)c(C(=O)Nc3ccc(C)c(Cl)c3)cc2c1` the displacement was -16%. Work on `COc1ccc2c(c1OC)C(=O)OC2Nc1cc(S(N)(=O)=O)ccc1O` (centres undefined) yielded a displacement of 3.9%. For `Cc1cccc(NCc2cccc([N+](=O)[O-])c2)c1`, the displacement was 9%. In the case of `Cc1n[nH]c(C)c1CCCOc1ccc(Cl)cc1`, the displacement is reported as 10%. For `O=C(NCCN1CCOCC1)c1ccc(Cl)cc1[N+](=O)[O-]`, the displacement was -2.4%. `CCOC(=O)Nc1nc2ccc(S(C)(=O)=O)cc2s1` was tested, and the displacement was -2.7%. `Cc1ccc(C)c(NC(=S)NC(NC(=O)c2ccccc2F)C(Cl)(Cl)Cl)c1` (centres undefined) was tested, and the displacement was 14.7%.
